Assay results as given in the supplement of paper PMC3334620.
The full ranking holds about 33,000 sequences; the median of “E-score (-0.5 to 0.5)” is about -0.016, and the highest 2% start at about 0.31. Some of the results follow.

Molecular target: Cst6 (UniProt P40535)
Test: PBM E-score (8-mer binding enrichment) (E-score (-0.5 to 0.5)); higher = stronger / more preferred TF binding; most listed sequences are background and not binding sites
Conditions: protein concentration: 200 nM; construct: GST-DNA-binding domain
Description: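 Universal 'all 10-mer' protein binding microarrays (Agilent AMADID 015681) probed with GST-tagged S. cerevisiae TFs (full-length or DBD) made by in vitro transcription/translation (PURExpress), about 100-200 nM. Bound TF was detected with fluorescent anti-GST. Each ungapped 8-mer (which stands for itself and its reverse complement) is scored by the PBM enrichment score (E-score), a modified Wilcoxon-Mann-Whitney statistic from -0.5 to +0.5, computed with the Universal PBM Analysis Suite. Scale: above 0.35 generally sequence-specific binding.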

Sequence	PBM E-score
GGTTGATA	-0.0494
CGCGCTTA	0.154
CATTTACA	0.218
CTAGTTTA	0.0239
AGGACGAG	-0.325
ACTCATAT	0.131
AAAGTGGA	0.0186
ATGAAATG	0.0988
GGCTGAAC	-0.141
GCGTCTTA	-0.118
CCGACACC	-0.303
AGGAAGTG	-0.122
GTACGTGA	0.108
ACGATGCC	0.00628
ATCAACAA	0.225
CTAAAGCC	-0.0993
ATAAGTTG	0.0246
ACGACGTA	0.3
ATACGGTG	0.104
AACTACCT	0.0258
CCGGTAAC	-0.0423
GCGCAACA	-0.0516
GCGGATAA	0.107
AACTCAGT	-0.0268
GACCAAAA	0.189

Sequence	PBM E-score
CCCGGGGC	-0.205
ATGTACAC	0.129
GAACCATC	-0.0588
CACGCGGA	0.192
CCCTGACG	0.0353
ATCTATAA	0.184
AAAGCATA	0.0739
GGGCTCCA	-0.307
CATATTCC	-0.184
CAGGTACA	-0.139
AACTACAC	0.16
CCGCCAAA	0.0155
CCACCCAG	-0.0877
TACACAAA	0.311
GCTCTTAA	0.0103
GGGGTAGA	-0.0523
CCTGTGAA	-0.00874
GTATGGAA	-0.0917
GATAGTCA	-0.0283
AATAGCTA	-0.0201
CTGACCAC	-0.0765
GCCAAGAC	-0.0294
ATTCGCCA	0.14
CTTCGAGC	-0.101
AAAATCTC	0.0464

Sequence	PBM E-score
ATGCTAAT	0.152
CATTAAAA	0.261
CGTGATGA	0.297
GAGCTTAC	-0.0468
GGAGGCCC	-0.275
CGCCGGGC	-0.123
AAGTCGCT	-0.157
CGGCTCAA	0.164
TCACCTCA	0.298
TATTGTAA	0.15
ATTGGCTG	-0.0847
GGATTCAC	-0.0944
AGGCCTCC	-0.321
GCTAACCA	-0.205
AGCCCTAG	-0.122
CCCGCTCC	-0.398
CAGGCACG	-0.00833
AGATTGGC	-0.177
AAGGCCGC	0.0764
GGTTGCGA	-0.0447
CGGGGTTA	-0.0616
AAGTTGCG	0.102
AATGTTGC	0.169
ATAGCAAT	0.19
CCCAGGGG	-0.252

Sequence	PBM E-score
ACAAGACT	-0.0794
GGTAGCCA	-0.187
AGAGCAGG	-0.0274
TATCGAGA	-0.00999
GCTAGAGA	-0.0439
AAAATAGG	0.0451
CCGGCGCC	0.14
GAGATGAA	-0.133
GAAAGACC	-0.212
CGACTCTC	-0.162
ACGGTTCG	-0.17
CTGTGTAA	0.177
TAGGGAAA	0.0127
AATCATAT	0.172
CAGGATAC	-0.0009
CTTTCATA	0.206
AAGCCTCC	-0.209
GTGACAAC	0.268
ACGTTCGA	0.0909
AAAATGTA	0.154
ATGACCAG	0.0388
AGATGAAC	0.0549
CTTGATTA	-0.0838
CTATATCA	0.189
GGTGGACA	-0.117

Sequence	PBM E-score
AAATTCGG	0.0235
ATAGAGTG	-0.0498
GAGACGAC	-0.228
CAAATTAC	0.225
CTTAGGAA	0.101
TGTTCAAA	0.0911
AGGTGTCA	0.102
GGGTGCGA	-0.156
CCATACAA	0.0991
AAAAATCA	0.222
GTTCAGGA	0.0305
CCGAAAAA	0.182
GACGTTAA	0.32
TCAACTAA	0.197
ACGATAGG	-0.125
AGAGTAAC	0.00715
GTCTGGCA	-0.322
AACTTAGG	-0.0689
AACAATCA	0.287
ATGAATTC	0.134
AAACCCAA	0.0909
CAATCACA	0.112
ATCATAGG	0.193
TGTGTAAA	0.283
ACCGTAGT	-0.163

Sequence	PBM E-score
CACTTTCC	-0.0474
ACCCGAAG	-0.21
GCGTTAGC	0.0351
ATACCGTA	0.0418
GTCGGGTA	-0.158
GGGTCTAA	-0.119
CTTAGATA	0.0873
ATGGCCAT	-0.292
AATCGCCT	0.172
CTGTTCGC	0.0664
GTTACTAA	0.171
GCCCACCC	0.114
CTGGGGTA	-0.226
GGCCTACA	-0.0987
CCGTACAG	0.0556
AAAATCGC	0.113
CGGGGAAC	-0.0966
CCAAACTC	-0.0716
AACGCTCG	0.112
GATGGGGC	-0.12
CGACCTAC	-0.262
ACCCGCGC	0.172
CCGGATAA	-0.0352
GGGTTCAA	-0.14
ATTTTTCG	0.244

Sequence	PBM E-score
CTCTCCCA	-0.296
GTTGGAGA	-0.0327
ACGGCAGG	-0.19
ATTTACTA	0.107
GTATATGA	0.217
ACGGGAAT	-0.116
CTATTGTC	0.0433
ACCAAGTA	0.11
TCCTCTCA	-0.21
GATGGAAA	-0.0381
GTTGTGAA	0.128
CGAGTACC	-0.158
AGGCGCAC	0.057
CACTTCAA	0.0667
AATGATAC	0.316
CATTTGCC	-0.144
ATACTGTA	0.0985
GACGTCTA	0.182
ACAACCGG	-0.134
TTCTGAAA	0.106
AAACAACT	0.0816
CGGTCAGC	-0.205
